Hit rate of the full screen: of about 310,000 compounds, about 2,200 (0.71%) showed an effect of 50% or more. Effects have a minus sign here. Some of the results follow.
biological target: human ether-à-go-go-related gene (hERG) potassium channel (human, UniProt Q12809); experiment: primary screen, population patch clamp on CHO cells stably expressing hERG
Sequence (Q12809 whole entry, looked up): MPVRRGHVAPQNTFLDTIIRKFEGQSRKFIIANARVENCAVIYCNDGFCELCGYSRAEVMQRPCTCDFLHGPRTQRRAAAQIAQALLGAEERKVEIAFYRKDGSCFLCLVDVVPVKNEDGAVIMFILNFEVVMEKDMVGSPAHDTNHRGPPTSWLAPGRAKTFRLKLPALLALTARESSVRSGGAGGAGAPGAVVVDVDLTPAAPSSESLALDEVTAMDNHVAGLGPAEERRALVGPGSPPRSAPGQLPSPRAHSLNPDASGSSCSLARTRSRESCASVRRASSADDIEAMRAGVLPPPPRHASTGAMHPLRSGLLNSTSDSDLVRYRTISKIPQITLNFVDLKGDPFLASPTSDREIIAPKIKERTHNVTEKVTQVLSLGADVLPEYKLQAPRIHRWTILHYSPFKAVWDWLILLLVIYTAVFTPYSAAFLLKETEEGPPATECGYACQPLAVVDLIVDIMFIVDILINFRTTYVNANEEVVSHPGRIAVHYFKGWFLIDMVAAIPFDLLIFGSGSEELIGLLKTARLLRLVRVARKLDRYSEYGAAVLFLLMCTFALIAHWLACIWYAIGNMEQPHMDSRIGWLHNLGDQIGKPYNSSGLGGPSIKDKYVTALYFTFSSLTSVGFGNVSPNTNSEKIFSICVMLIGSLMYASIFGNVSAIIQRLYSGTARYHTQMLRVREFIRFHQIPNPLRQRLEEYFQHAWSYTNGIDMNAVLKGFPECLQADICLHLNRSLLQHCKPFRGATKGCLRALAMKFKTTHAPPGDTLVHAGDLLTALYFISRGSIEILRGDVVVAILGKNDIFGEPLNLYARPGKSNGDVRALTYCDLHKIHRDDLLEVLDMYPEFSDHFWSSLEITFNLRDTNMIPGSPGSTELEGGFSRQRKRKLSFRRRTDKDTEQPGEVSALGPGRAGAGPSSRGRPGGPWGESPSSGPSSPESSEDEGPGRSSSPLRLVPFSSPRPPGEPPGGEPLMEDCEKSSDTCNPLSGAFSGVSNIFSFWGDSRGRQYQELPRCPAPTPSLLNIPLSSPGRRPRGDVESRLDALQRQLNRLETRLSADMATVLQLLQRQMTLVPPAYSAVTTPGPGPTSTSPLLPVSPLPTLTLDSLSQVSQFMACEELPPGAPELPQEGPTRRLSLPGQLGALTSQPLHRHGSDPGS

SMILES	hERG current change (%, negative = inhibition) at 1uM [%]
Cc1ccc(S(=O)(=O)N(C)CCCC(=O)Nc2cccc3ccccc23)cc1	-2.05
Cc1c(C(=O)NCc2ccccn2)oc2ccc(Br)cc12	-9.75
CCNC(=S)Nc1ccc(Cl)c(C(F)(F)F)c1	3.22
CCN1CCN(C(=O)c2ccccc2N(C)S(=O)(=O)c2ccc(C)cc2)CC1	4.82
CCc1cccc(OCCCCNCCCOC)c1.O=C(O)C(=O)O	7.35
COc1cccc(-c2csc(NC(=O)C3CC3)n2)c1	16.7
O=C(NNC(=O)C1CC1c1ccccc1)Nc1cccc(Cl)c1 (stereo not drawn)	11.3
COc1ccccc1C(=O)NCCC(=O)N(Cc1ccco1)Cc1cccs1	4.67
Cc1nc2cc(NC(=O)c3ccc(Cl)cc3)ccc2n1C	3.76
Cc1ccc(/C=N/Nc2cn[nH]c(=O)n2)o1	7
CC(C)NC(=O)CN(C(=O)CCC(=O)Nc1nccs1)c1ccc2c(c1)OCO2	11.1
COc1ccc(-n2nnnc2CNC(=O)c2ccc(S(=O)(=O)N3CCOCC3)cc2)cc1	12.8
O=C(O)c1ccccc1OC(C(=O)Nc1cc(Cl)cc(Cl)c1)c1ccccc1 (stereo not drawn)	13.6
CC1Cc2cc(S(=O)(=O)NCCc3ccccc3)ccc2N1C(=O)C1CC1 (stereo not drawn)	18.9
Cc1ccccc1CN1C(=O)C2(OCCCO2)c2ccccc21	-2.01
COc1ccc(C2C3=C(CC(C)(C)CC3=O)Nc3nc(C)nn32)cc1OC (stereo not drawn)	14.4
CCOCCCn1c(SCc2nc3sc(C(=O)O)c(C)c3c(=O)[nH]2)nnc1-c1ccc(Cl)cc1	12.6
CCC(C)(C)NC(=O)CN(C(=O)CCC(=O)Nc1ccccn1)c1ccc2c(c1)OCO2	7.1
CCOc1ccc(NS(=O)(=O)c2ccc3c(c2)CCN3C(=O)CCC(=O)O)cc1	10.1

SMILES	hERG current change (%, negative = inhibition) at 1uM [%]
Cc1ccc(-c2ccccc2)n1-c1cccc(C(=O)O)c1	10.4
CSc1nc(C)c(CCOCc2ccccc2)c(=O)[nH]1	15.8
CC(C(=O)O)n1cc(Cl)cn1 (stereo not drawn)	3.56
NS(=O)(=O)c1ccc(NC(=O)/C=C/c2ccccc2Cl)cc1	12.5
N/C(=N\OC(=O)N1c2ccccc2Sc2ccccc21)c1ccccc1	14.8
CN(C)c1ccc(C(=O)Nc2ccc(O)c3c(=O)cc(-c4ccccc4Cl)oc23)cc1	2.71
NC(=O)CSc1nnc2ccc(-c3ccc(F)cc3)nn12	7.98
O=C(C1CC1)N1CCc2cc(S(=O)(=O)NCCCN3CCCCC3)ccc21	9.04
Cc1cc(C)nc(NC(=O)CSc2ccccn2)n1	0.769
CS(=O)(=O)N1CCN(c2ccc(NC(=S)NC(=O)c3ccccc3[N+](=O)[O-])cc2)CC1	16.9
COc1ccc(N(CC(=O)N2CCOCC2)S(=O)(=O)c2ccccc2)cc1Cl	0.0557
CCOC(=O)C1=C(CSc2nc(-c3ccccc3)ccc2C#N)OC(N)=C(C#N)C1c1ccccc1 (stereo not drawn)	-3.63
CCOC(=O)Cc1c(C)nc2cc(-c3ccc(Cl)cc3)[nH]n2c1=O	13.4
Cn1cc(CCC(=O)N2CCCC(C(=O)c3cccc4ccccc34)C2)cn1 (stereo not drawn)	5.01
Cc1oc(-c2ccccc2Cl)nc1CSCC(=O)NC1CC1	-0.184
Cn1c(SCC(=O)Nc2ccc(Br)cn2)nnc1C1CC1	17.8
CC(SCc1ccccc1)C(=O)N/N=C/c1cccs1 (stereo not drawn)	13.8
O=C(NCCc1ccccn1)c1ccc(OC2CCN(Cc3ccccn3)CC2)cc1	12.8
O=C(CCC(=O)c1ccc(Cl)s1)Nc1ncccc1O	5.07

SMILES	hERG current change (%, negative = inhibition) at 1uM [%]
CC(=O)Nc1ccc(S(=O)(=O)N(C)CC(=O)NCCC2=CCCCC2)cc1	10.3
C=CCn1cnc2c(c1=O)c1nc3ccccc3nc1n2/N=C/c1cccc(OC)c1OC	6.54
CN(C)c1nc(Cl)cc(N2CCOCC2)n1	7.09
CCN1CCN(C(=O)c2cc3cc([N+](=O)[O-])ccc3oc2=O)CC1	-1.11
CCn1nnc2cc(C(=O)Nc3cc(Cl)ccc3C)ccc21	-2.41
Cc1ccc2nc(CSc3nnc(-c4ccco4)n3-c3ccccc3)cc(=O)n2c1	-2.87
Cc1cc(Nc2cccc(Cl)c2)nc(-c2ccccc2O)n1	12.1
COc1ccc(C2c3c(c(C)c(C)oc3=O)Oc3c(C)c(C)oc(=O)c32)cc1	14.7
Cc1ccc(OCc2nc(C#N)c(N3CCCC3)o2)cc1	-10.7
Oc1ccccc1N=Cc1c(O)ccc2oc3c(c12)CCCC3	18.2
CC(C)CCOc1ccc(C(=O)N2CCN(c3ncccn3)CC2)cc1	9.53
O=C1NC2(CCCCC2)C(=O)N1CCN1C(=O)c2ccccc2C1=O	17.7
COC(=O)c1cc(Br)c(=O)n(CCN2CCCC2)c1	8.37
CCCC(=O)N(Cc1cc(=O)[nH]c2ccccc12)c1ccccc1C	13.1
O=C(NC1CCCCC1)C(c1cccnc1)N(C(=O)CCl)c1ccccc1Cl (stereo not drawn)	4.69
CSc1ccc(/C=N/N(C)S(=O)(=O)c2ccc(C)cc2)cc1	12.6
NC(=O)c1ccsc1NC(=O)COC(=O)c1cc(=O)[nH]c2ccccc12	15.4
COc1ccc(OC)c(NC(=O)C2CCCN2S(=O)(=O)c2cccc3nsnc23)c1 (stereo not drawn)	17
Cc1ccc(-c2nnc(SCC(C)C)n2C)cc1	6.53

— article PMC4336329 (PLoS ONE, 2015)
